No constants are given. Whether binding was seen depends on the method and setting. For some assays here: In cells and extracts the contact can be indirect. Some results given as binding are weak or reduced against the parent protein; the word gives no strength. For some assays here: Sequences can lack the tags named with a protein.

The chains behind the UniProt entries cited, without tags or fusion partners.
UniProt P09651: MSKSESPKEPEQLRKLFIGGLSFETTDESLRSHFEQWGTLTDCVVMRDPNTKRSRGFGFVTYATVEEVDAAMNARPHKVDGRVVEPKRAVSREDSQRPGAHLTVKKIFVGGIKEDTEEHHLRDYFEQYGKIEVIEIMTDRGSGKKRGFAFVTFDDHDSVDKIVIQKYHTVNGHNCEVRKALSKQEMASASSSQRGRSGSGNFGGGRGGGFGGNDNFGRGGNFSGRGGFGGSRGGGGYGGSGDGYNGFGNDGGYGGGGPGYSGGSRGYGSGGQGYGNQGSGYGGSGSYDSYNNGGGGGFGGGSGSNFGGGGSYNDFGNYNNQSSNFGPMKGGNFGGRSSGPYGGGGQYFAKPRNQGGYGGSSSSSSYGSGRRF
UniProt Q9H814: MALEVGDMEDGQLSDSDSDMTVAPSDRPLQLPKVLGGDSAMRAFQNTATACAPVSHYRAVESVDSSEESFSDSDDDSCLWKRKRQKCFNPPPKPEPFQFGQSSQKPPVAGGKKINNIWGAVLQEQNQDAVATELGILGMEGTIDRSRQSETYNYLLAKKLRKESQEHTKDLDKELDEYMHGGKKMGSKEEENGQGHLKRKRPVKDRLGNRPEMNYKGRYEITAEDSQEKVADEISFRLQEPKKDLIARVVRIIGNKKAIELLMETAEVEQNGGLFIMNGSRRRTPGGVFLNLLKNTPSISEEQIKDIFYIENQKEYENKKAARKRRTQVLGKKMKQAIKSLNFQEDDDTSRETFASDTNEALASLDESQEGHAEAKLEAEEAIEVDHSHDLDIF
UniProt O14980: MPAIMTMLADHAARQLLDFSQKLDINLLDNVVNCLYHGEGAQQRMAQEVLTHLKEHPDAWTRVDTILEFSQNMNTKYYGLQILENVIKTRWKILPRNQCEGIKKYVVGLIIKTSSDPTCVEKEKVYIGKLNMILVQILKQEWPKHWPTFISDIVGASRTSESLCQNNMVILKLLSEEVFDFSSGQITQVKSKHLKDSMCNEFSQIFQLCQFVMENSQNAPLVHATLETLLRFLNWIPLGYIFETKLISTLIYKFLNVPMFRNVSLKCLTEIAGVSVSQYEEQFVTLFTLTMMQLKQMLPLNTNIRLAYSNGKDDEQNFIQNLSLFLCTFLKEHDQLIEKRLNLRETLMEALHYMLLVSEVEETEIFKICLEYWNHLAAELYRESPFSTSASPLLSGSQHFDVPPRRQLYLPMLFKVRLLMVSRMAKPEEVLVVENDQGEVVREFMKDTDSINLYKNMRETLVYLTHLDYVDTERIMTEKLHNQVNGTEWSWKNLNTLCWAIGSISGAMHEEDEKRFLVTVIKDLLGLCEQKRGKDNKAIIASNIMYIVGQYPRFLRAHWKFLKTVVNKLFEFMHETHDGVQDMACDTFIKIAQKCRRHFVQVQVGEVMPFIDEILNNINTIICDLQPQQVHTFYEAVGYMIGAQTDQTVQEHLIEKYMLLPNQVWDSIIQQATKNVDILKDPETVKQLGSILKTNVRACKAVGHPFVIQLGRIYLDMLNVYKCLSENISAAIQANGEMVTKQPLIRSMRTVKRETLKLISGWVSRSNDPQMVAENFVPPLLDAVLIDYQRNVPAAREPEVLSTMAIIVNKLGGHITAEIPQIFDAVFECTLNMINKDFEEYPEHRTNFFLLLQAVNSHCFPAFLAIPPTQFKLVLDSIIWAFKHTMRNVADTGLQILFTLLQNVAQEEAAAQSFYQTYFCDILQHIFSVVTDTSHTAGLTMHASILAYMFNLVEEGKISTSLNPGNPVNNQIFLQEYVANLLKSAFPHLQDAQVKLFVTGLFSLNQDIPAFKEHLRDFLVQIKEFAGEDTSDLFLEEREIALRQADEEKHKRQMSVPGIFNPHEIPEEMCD

The target in experiment [1] is T1, recombinant human PSF with N-terminal His-tags (human) (UniProt P23246).
T1 sequence: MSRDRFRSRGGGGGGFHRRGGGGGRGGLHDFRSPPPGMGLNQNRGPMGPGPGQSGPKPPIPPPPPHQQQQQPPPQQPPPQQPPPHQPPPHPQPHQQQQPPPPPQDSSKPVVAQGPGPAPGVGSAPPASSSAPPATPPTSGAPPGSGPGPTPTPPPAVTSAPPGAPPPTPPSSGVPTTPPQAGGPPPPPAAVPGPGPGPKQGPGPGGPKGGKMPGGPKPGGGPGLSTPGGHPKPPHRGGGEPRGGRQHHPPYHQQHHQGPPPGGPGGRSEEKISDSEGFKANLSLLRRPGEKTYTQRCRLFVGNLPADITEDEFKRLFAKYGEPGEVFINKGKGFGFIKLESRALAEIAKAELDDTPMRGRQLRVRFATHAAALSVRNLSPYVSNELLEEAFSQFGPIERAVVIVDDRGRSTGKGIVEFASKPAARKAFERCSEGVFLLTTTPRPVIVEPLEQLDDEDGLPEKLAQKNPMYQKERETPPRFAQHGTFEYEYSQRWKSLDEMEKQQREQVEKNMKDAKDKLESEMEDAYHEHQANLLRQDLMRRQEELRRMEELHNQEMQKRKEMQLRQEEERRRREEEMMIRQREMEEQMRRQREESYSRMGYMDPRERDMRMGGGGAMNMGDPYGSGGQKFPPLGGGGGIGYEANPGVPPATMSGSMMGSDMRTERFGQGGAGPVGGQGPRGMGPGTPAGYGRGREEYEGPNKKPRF
In words: co-IP; purified recombinant proteins (20 μg) rotated with Protein A Sepharose beads pre-bound with anti-p54nrb, anti-PSF or anti-Myc, with 1 mg/ml RNase A in 150 μl RSB150N buffer (10 mM Tris-Cl pH 7.5, 150 mM NaCl, 2.5 mM MgCl2, 0.1% NP-40); western blotting; both purified. (In general: Immunoblotting shows a protein as a band on a membrane.)

Another experiment concerns the target recombinant hnRNP A1 (UniProt P09651). The experiment is described as above.
Experiment [2] has as its target T2, recombinant human p54nrb/NonO (human) (UniProt Q15233).
T2 sequence: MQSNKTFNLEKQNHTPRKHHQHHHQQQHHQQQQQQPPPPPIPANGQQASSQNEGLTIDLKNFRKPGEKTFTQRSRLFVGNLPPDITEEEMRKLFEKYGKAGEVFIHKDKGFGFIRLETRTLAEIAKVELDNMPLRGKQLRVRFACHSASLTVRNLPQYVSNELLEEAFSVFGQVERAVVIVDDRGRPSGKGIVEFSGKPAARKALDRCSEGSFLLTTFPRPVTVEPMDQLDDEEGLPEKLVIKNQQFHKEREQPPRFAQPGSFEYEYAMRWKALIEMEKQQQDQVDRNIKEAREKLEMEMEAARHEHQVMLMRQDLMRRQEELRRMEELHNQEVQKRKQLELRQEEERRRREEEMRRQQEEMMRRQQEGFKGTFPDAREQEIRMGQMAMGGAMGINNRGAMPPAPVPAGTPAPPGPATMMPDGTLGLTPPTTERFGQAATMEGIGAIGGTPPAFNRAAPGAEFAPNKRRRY
The experiment is described as above.

Experiment [3] deals with GST-PHAX fusion protein (phosphorylated adaptor for RNA export) (UniProt Q9H814). Kind of experiment: pull-down; GST-PHAX or GST (0.2 µM each) mixed with p54nrb or PSF in the absence or presence of RNase A; GST pull-down, precipitate analysed by western blotting; both purified.
The target in the next experiment is flag-tagged PHAX (UniProt Q9H814). Kind of experiment: co-IP; FLAG-PHAX transiently expressed in HeLa cells, fixed with 1% formaldehyde, lysed in mRIPA buffer by sonication; anti-FLAG M2 affinity gel, 2 h at 4°C; western blotting.

“recombinant CRM1 (from UniProt O14980 1-1071)”: the binding entry in experiment [1] was “binds”; in the experiment with recombinant hnRNP A1, “no binding (tested: 20 μg protein in 150 μl)”; in experiment [2], “binds”.

B1: recombinant human p54nrb/NonO (protein, UniProt Q15233 1-471)
chain: T2 sequence
Regarding B1, the binding entry in experiment [3] is given as “binds”.

B2: endogenous p54nrb/NonO (HeLa) (protein, UniProt Q15233 1-471)
chain: T2 sequence
With B2, the binding entry with flag-tagged PHAX was “binds”.

These data come from PMC3973303.
